No constants are given. Whether binding was seen depends on the method and setting. For some of these results: Binding seen in cells or lysates may run through a third protein. Some binding calls cover weakened binding; strength is not graded here. For some of these results: Tags and fused reporters may be left off the sequences shown.
Legend:
[1] = target: T1, GST-GFP-hnRNP R bipartite NLS (UniProt O43390); assay: pull-down; GST-GFP NLS fusions on glutathione resin (1 μg/μl), 35S-methionine-labeled in vitro translated Imp-α isoforms (125,000 cpm); 25 mM Tris pH 7.5, 50 mM NaCl, 5 mM MgCl2, 0.1% NP-40, 3 hours at 4 °C; autoradiography; only the target purified
T1 sequence: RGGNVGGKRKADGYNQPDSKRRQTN

Amino acid sequences for entries named in this document (tags omitted). A change or cut given only in a name is not applied to a line headed by its entry.
UniProt A9QM74: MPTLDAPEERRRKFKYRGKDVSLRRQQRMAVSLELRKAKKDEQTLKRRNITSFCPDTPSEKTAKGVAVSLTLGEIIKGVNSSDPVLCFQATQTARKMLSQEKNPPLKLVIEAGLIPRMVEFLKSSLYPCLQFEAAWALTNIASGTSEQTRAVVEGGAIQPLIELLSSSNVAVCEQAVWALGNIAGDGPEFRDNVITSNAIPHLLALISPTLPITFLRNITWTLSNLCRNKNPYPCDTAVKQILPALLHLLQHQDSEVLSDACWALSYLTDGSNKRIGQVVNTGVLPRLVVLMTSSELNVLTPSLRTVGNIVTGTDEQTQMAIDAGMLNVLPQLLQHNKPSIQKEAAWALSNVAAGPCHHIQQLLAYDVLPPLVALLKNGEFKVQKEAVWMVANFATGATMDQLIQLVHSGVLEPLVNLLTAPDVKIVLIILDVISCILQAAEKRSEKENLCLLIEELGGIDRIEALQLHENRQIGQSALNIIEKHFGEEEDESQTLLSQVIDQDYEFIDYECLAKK
UniProt Q14974: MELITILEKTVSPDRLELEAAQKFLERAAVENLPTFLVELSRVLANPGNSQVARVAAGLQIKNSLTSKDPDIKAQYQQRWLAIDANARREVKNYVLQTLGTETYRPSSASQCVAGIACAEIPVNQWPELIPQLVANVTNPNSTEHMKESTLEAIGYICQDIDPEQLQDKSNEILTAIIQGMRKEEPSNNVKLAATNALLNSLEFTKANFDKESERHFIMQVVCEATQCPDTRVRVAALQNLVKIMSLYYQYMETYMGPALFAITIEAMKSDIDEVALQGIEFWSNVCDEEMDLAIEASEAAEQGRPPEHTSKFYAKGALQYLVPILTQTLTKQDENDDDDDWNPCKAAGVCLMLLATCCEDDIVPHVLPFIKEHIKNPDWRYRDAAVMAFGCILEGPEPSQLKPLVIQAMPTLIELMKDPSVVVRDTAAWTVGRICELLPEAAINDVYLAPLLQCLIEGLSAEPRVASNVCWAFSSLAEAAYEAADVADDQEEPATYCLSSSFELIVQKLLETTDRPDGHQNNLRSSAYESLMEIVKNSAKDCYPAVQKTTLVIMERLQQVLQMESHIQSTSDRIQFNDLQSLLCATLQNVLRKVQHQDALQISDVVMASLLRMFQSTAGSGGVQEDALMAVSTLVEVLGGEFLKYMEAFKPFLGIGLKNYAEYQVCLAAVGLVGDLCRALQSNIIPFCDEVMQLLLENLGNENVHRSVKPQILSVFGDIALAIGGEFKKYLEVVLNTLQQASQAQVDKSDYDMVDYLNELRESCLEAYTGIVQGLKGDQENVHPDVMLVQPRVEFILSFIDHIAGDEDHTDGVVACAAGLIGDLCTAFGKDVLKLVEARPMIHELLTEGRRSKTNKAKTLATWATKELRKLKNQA

[2] = target: MBP-KPNA7 (wild type) (human) (UniProt A9QM74); assay: pull-down; MBP fusion proteins on amylose resin, incubated with the indicated concentrations of Imp-β; amylose column buffer, 4 °C; western blot; both purified
[3] = target: MBP-KPNA7(P339A) (human) (UniProt A9QM74); assay: as above
[4] = target: MBP-KPNA7(E344Q) (human) (UniProt A9QM74); assay: as above

Substance | binding [1] | binding [2] | binding [3] | binding [4]
35S-labeled KPNA7 (in vitro translated) (from UniProt A9QM74 1-516) (receptor) | binds | – | – | –
Importin β (from UniProt Q14974 1-876) (receptor) | – | binds | binds | binds

— paper PMC7076015
